Laboratory results taken from PubChem BioAssay AID493208 (National Center for Advancing Translational Sciences (NCATS), 2011).
The campaign covered roughly 44,000 compounds. About 340 (0.77%) were called active. About 5% were inconclusive and are not listed. The call rests on the fitted dose curve; in most records, active means well fitted inhibition curve with a large enough effect; inconclusive means small, poorly fitted or top-dose-only effect; inactive means flat fitted curve, though single readings scatter. This is one part of the list.

assay: Acumen qHTS Assay for Inhibitors of the mTORC1 Signaling Pathway in MEF (Tsc2-/-, p53-/-) Cells: Sytravon; settings: phospho-rpS6 immunofluorescence/PI, 24 h; series mostly up to 38.3 µM; activity change, negative = inhibition: at the top concentration;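 further: plate controls were DMSO for no effect and rapamycin for full effect; nearly all actives have a fitted effect of over 50% in size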
How it was run: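 Readout is phospho-S6 Alexa 488 signal normalized to PI per well, reported as % active cells with thresholds set from rapamycin (7.5 nM) and DMSO controls. Cells: Tsc2-/-, p53-/- MEFs, 24 hrs compound at 37 C; PI cell number serves as viability.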

| Compound | activity change, negative = inhibition |
| --- | --- |
| COc1ccc(Cl)cc1NC(=O)c1c(C(=O)Nc2cccc(C)c2C)sc2nc(C)cc(=O)n12 | inactive: 2.68% |
| CCOC(=O)c1cc(-c2ccc(C)cc2)n(CC(=O)Nc2cccc(C(C)=O)c2)c1C | inactive: -2.52% |
| COCCCn1c(=N)c(S(=O)(=O)c2ccccc2)cc2c(=O)n3cccc(C)c3nc21 | inactive: -4.71% |
| CC1(C)CC(=O)c2cc(C(=O)Nc3ccc(Br)cc3)c(=O)n(-c3ccc(Cl)cc3)c2C1 | inactive: -0.872% |
| COc1ccccc1N1CCN(C(=O)CCSCc2ccccc2F)CC1 | inactive: 2.73% |
| Cc1oc(-c2ccccc2F)nc1Cn1c(SCc2ccccc2F)nc2ccncc21 | inactive: -6.66% |
| CCn1cc2nc(SCc3cc(C)ccc3C)n(Cc3ccc(C)cc3)c(=O)c2n1 | inactive: 2.24% |
| Cc1ccccc1OCc1nc2c3cnn(-c4ccccc4Br)c3ncn2n1 | inactive: 2.3% |
| COc1ccc(Nc2oc(/C=C/c3ccc(F)cc3)nc2C#N)cc1 | inactive: -0.883% |
| Cc1ccc(C2c3cccn3CCN2S(=O)(=O)c2ccc([N+](=O)[O-])cc2)cc1 (stereo unspecified) | inactive: 0.201% |
| O=S(=O)(NCCc1csc(-c2ccc(F)cc2)n1)c1ccc(F)cc1F | inactive: -0.16% |
| COc1ccc(N2CC(NC(=O)c3cccs3)CC2=O)cc1OC (stereo unspecified) | inactive: -5.36% |
| O=C(Nc1ccc(F)cc1)c1ccc(-n2cnnc2)cc1 | inactive: -1.65% |
| CCc1ccc(-c2[nH]c3c(c2-c2c(-n4cccc4)n(C)c(=O)[nH]c2=O)c(=O)[nH]c(=O)n3C)cc1 | inactive: 0% |
| O=C(Nc1nnc(S(=O)(=O)N2CCCCC2)s1)c1ccc(Cl)cc1 | inactive: -0.252% |
| CC(=O)Nc1ccc(NS(=O)(=O)c2ccc3c(c2)CCCN3C(C)=O)cc1 | inactive: -6.17% |
| COc1ccc(-n2ncc(C(=O)Nc3ccc(C)cc3Cl)c2C2CCN(C(=O)OC(C)(C)C)CC2)cc1 | inactive: -0.0346% |
| CCOc1ccc(-c2cn3c(n2)sc2cc(C(=O)NCCC4=CCCCC4)ccc23)cc1 | inactive: 1.73% |
| CCOc1ccc(NC(=O)CSc2nnc(CC)c(CC)n2)cc1 | inactive: 9.46% |
| CCN(CC)CCNC(=O)C1CCCN(c2nnc(C)c3c(C)n(-c4ccc(Cl)cc4)nc23)C1 (stereo unspecified) | inactive: -0.0756% |
| Cc1cccc(C)c1NC(=O)C1CCCN(S(=O)(=O)c2c(C)noc2/C=C/N(C)C)C1 (stereo unspecified) | inactive: -2.19% |
| COc1ccccc1CNC(=O)c1ccc(NC(=O)N2CC(C)Sc3ccccc32)cc1 (stereo unspecified) | inactive: -8.61% |
| CCOC(=O)c1cc(-c2ccc(C)cc2)n(CCC(=O)NCc2ccccc2)c1C | inactive: -8.19% |
| Cc1cccc(OCC(=O)Nc2ccc(C(=O)OCc3cc(=O)n4nc(C5CC5)sc4n3)cc2)c1 | inactive: 17% |

| Compound | activity change, negative = inhibition |
| --- | --- |
| COC(=O)c1ccc(NC(=O)CSc2ccc(-c3cccs3)nn2)cc1 | inactive: -2.45% |
| Cc1ccc(-c2nc3scc(CCNS(=O)(=O)c4ccc(C)c(C)c4)n3n2)cc1 | inactive: -4.26% |
| Cc1ccc(-c2noc(-c3cccnc3NCc3ccc(Cl)cc3)n2)cc1 | inactive: -2.29% |
| O=C(NCCc1nc2ccccc2n1CCOc1ccc(Cl)cc1)C1CCCCC1 | inactive: 1.37% |
| CCc1ccc(NC(=O)C(Cc2ccccc2)NS(=O)(=O)c2ccc3c(c2)CCN3C(C)=O)cc1 (stereo unspecified) | inactive: -13.4% |
| Cc1cc(C)c(NC(=O)c2cc(CN3CCOCC3)on2)c(C)c1 | inactive: 0% |
| COc1ccc2cc(S(=O)(=O)c3ccccc3F)c(=O)oc2c1 | inactive: 4.96% |
| C#CCOc1ccc(C2C(C(=O)OC)=C(C)NC3=C2C(=O)c2ccccc23)cc1OCC (stereo unspecified) | inactive: -21.1% |
| CCOc1ccc(Sc2cc(C(=O)NCCCOC)c3ccccc3n2)cc1 | inactive: 8.45% |
| CN1CCN(C(=O)c2cnn(-c3cccc(F)c3)c2C2CCN(C(=O)OC(C)(C)C)CC2)CC1 | inactive: 5.87% |
| Cc1ccc(C)c(CSc2c(C(C)C)cnc3c2c(=O)n(C)c(=O)n3C)c1 | inactive: -12.8% |
| Cc1csc2nc(COc3ccc(NC(=O)COc4ccc(F)cc4)cc3)cc(=O)n12 | inactive: 0.802% |
| COc1ccc(N2CCN(C(CNC(=O)c3ccc(C)cc3)c3ccc4c(c3)OCO4)CC2)cc1 (stereo unspecified) | inactive: 0.258% |
| CC(C)c1ccc(CNc2nc(-c3ccco3)nn2S(=O)(=O)c2ccccc2)cc1 | inactive: -19.6% |
| CCOc1ccccc1CNC(=O)c1nn(C)c2c1CS(=O)(=O)c1ccccc1-2 | inactive: -4.12% |
| COc1ccc(NC(=O)c2sc3nc[nH]c(=O)c3c2C)cc1 | inactive: -0.588% |
| Cc1ccc(-c2cc(C(=O)Oc3ccccc3)c3cccc(C)c3n2)cc1 | inactive: -1.1% |
| COC(=O)c1cc(S(=O)(=O)N2CCN(c3ccc(C)cc3C)CC2)cn1C | inactive: 1.47% |
| Cc1sc(-c2cc3ccccc3oc2=O)nc1-c1ccc(Cl)cc1 | inactive: 2.73% |
| O=C(CN1C(=O)COc2ccc(S(=O)(=O)N3CCCC3)cc21)N1CCN(c2ccccc2F)CC1 | inactive: -11% |
| Cc1ccccc1-c1nc(CS(=O)CC(=O)NCCc2ccc(Cl)cc2)c(C)o1 (stereo unspecified) | inactive: 0.907% |
| CC(C)Oc1ccc(CNC(=O)C2COc3ccccc3C2)cc1 (stereo unspecified) | inactive: 0.394% |
| COc1ccc(-c2noc(-c3ccc(N4CCCCC4)c([N+](=O)[O-])c3)n2)cc1 | inactive: 1.21% |
| CCOC(=O)c1cnc2ccc(OCC)cc2c1N1CCN(c2cccc(Cl)c2)CC1 | inactive: -21.2% |

| Compound | activity change, negative = inhibition |
| --- | --- |
| O=C1CN(C(=O)C2CCCCC2)C(c2ccccc2)c2cc(F)ccc2N1 (stereo unspecified) | inactive: -1.5% |
| CCOc1ccc(C2c3c(oc4ccc(C)cc4c3=O)C(=O)N2c2nc(C)c(C)s2)cc1OC (stereo unspecified) | inactive: -0.23% |
| COC(=O)c1ccccc1NC(=O)Nc1cccc(OCc2cc(=O)n3cccc(C)c3n2)c1 | inactive: -5.17% |
| CCCCCCOc1ccc(-c2nc3ccc(Br)cc3c(=O)o2)cc1 | inactive: -4% |
| Cc1ccc(CCNC(=O)CN2C(=O)COc3ccc(S(=O)(=O)N4CCC(C)CC4)cc32)cc1 | inactive: -3.79% |
| CCN1CCN(C(c2cccc(Cl)c2)c2c(O)cc(C)n(CCOC)c2=O)CC1 (stereo unspecified) | inactive: 2.49% |
| Cc1ccc(-c2nnc(SCC(=O)NCCC(C)C)nc2-c2ccc(C)cc2)cc1 | inactive: -2.43% |
| CCn1cc(C(=O)NCCCN(CC(C)C)CC(C)C)c(=O)c2cc(S(=O)(=O)N3CCc4ccccc4C3)ccc21 | inactive: -3.78% |
| COc1cccc(C2=NS(=O)(=O)N(C)C(C(=O)Nc3cccc(O)c3)=C2)c1 | inactive: 0.388% |
| COc1ccc(CC(=O)Nc2ccc(-c3nc4ccccc4s3)cc2Cl)cc1 | inactive: 0.659% |
| O=C(NCc1ccccc1)C(=O)NCC(c1ccco1)S(=O)(=O)c1ccccc1 (stereo unspecified) | inactive: 2.56% |
| CCc1ccc(NC(=O)N(Cc2c[nH]c3ccccc23)C2CCCCCC2)cc1 | inactive: -0.443% |
| Cc1cc2nn(-c3ccc(F)cc3)nc2cc1NC(=O)c1cc(Cl)ccc1Cl | inactive: -8.21% |
| CCCN(CCC)c1nn2c(=O)c(C(=O)NCc3cccc(OC)c3)cnc2s1 | inactive: -13.6% |
| COc1ccc(Cl)cc1NC(=O)CSc1nnc(C)n2c1cc1occc12 | inactive: -2.9% |
| COC(=O)c1sccc1S(=O)(=O)N1CCN(c2ccccc2)CC1 | inactive: -0.0811% |
| CCOc1ccc(CCNC(=O)CCc2c(C)nc3c4c(C)cc(C)nc4nn3c2C)cc1 | inactive: -3.86% |
| COc1cccc(NC(=O)NCc2ccc3c(c2)CCN3C(=O)c2ccccc2)c1 | inactive: -2.61% |
| Cc1cccc(C(=O)Nc2sc3c(c2C(=O)NCc2ccco2)CCCC3)c1 | inactive: -14.3% |
| Cc1ccc2[nH]c(=O)c3cc(C(=O)N4CCN(c5ccccc5)CC4)sc3c2c1 | inactive: 3.14% |
| CCN(CC)S(=O)(=O)c1ccc2c(c1)N(CC(=O)NCCCN1CCN(c3ccccc3F)CC1)C(=O)CO2 | inactive: 2.61% |
| CCc1ccc(NC(=O)c2cc(C(C)=O)n3ccccc23)cc1 | inactive: -1.49% |
| CC(C)c1ccc(C2N3CC4(C)CN2CC(c2ccccc2)(C3)C4=O)cc1 (stereo unspecified) | inactive: -9.08% |
| CCCc1nn2c(=O)cc(COC(=O)c3cccc(NC(=O)COc4ccc(F)cc4)c3)nc2s1 | inactive: 0% |

| Compound | activity change, negative = inhibition |
| --- | --- |
| CCc1nn(-c2ccccc2)c2nc(-c3ccccc3OC)c3cc(OC)c(OC)cc3c12 | inactive: 7.73% |
| CCOC(=O)c1scc(-c2ccccc2)c1S(=O)(=O)Nc1ccccc1F | inactive: -14.4% |
| Clc1cccc(N2CCN(c3ncnc4c3nc3n4CCCCC3)CC2)c1 | inactive: -21.1% |
| O=C(O)c1cc(NC2(c3ccccc3)C(=O)c3ccccc3C2=O)ccc1Cl | inactive: 3.33% |
| Cc1cc(C)c(Cn2c3ccccc3c3cnn(CC(=O)NC4CCC(C)CC4)c(=O)c32)c(C)c1 (stereo unspecified) | inactive: -2.28% |
| Cc1nc(-c2ccc(Cl)cc2)sc1CCNC(=O)C(=O)Nc1ccc(F)cc1F | inactive: -1.57% |
| O=C(Cn1c(=O)oc2cc(S(=O)(=O)N3CCCCC3)ccc21)Nc1cccc(Cl)c1 | inactive: -0.0398% |
| Cc1ccccc1NC(=O)c1ccc(F)c(S(=O)(=O)N(C)Cc2ccccc2)c1 | inactive: 6.23% |
| Cc1oc2c(c(C)cc3oc(=O)c(CC(=O)NCCc4ccccc4F)c(C)c32)c1C | inactive: 1.89% |
| CCOC(=O)C1CCN(c2ncnc3c2c(-c2ccccc2)cn3-c2cccc(C)c2)CC1 | inactive: 10.1% |
| CCc1ccc(NC(=O)CN2CCN(Cc3ccccc3)S2(=O)=O)cc1 | inactive: 5.71% |
| Cc1ccc(Cn2c(C(=O)O)c(CNCc3ccccc3Cl)c3ccc(C)cc32)cc1 | inactive: -3.37% |
| Cc1ccccc1-n1c(SCC(=O)Nc2ccc(Cl)cc2F)nnc1-c1cc2occc2n1C | inactive: 2.86% |
| Cc1cccc(NC(=O)CCCn2c(C)c3cnn(-c4ccccc4)c(=O)c3c2C)c1C | inactive: 1.02% |
| CCOc1ccccc1CNS(=O)(=O)c1ccc2c(c1)CCCN2C(C)=O | inactive: -25.4% |
| O=C(Cn1ccn(-c2ccc(F)c(F)c2)c(=O)c1=O)Nc1ccccc1F | inactive: -1.26% |
| CCc1ccc(CNC(=O)c2sc3ncccc3c2-n2c(C)ccc2C)cc1 | inactive: -19% |
| Cc1ccc(-c2nc3cc(C(C)C)ccc3o2)cc1NC(=O)c1cc2ccccc2o1 | inactive: -1.17% |
| Cc1ccc(CN2CCc3nc(N4CCN(c5ncccn5)CC4)ncc3C2)cc1 | inactive: 4.14% |
| Cc1ccc(C)n1-c1nnc(N2CCCC(C(=O)NCc3ccc(Cl)cc3)C2)s1 (stereo unspecified) | inactive: -9.9% |
| Cc1ccc(OCC(=O)Nc2ccc(S(=O)(=O)Nc3cc(C)nc(C)n3)cc2)c(Br)c1 | inactive: 14.5% |
| O=C(CCSc1nc(-c2ccco2)cc(C(F)(F)F)n1)Nc1cccc(O)c1 | inactive: -18% |
| O=C(Nc1ccc2oc(-c3cccnc3)nc2c1)c1cccc(Br)c1 | inactive: -0.207% |
| COc1cccc(NC(=O)CSc2nc3c(oc4ccccc43)c(=O)n2Cc2ccco2)c1 | inactive: -2.86% |
